Data from paper PMC10164574, “Fission yeast Swi2 designates cell-type specific donor and stimulates Rad51-driven strand exchange for mating-type switching”.
Changes are numbered by the printed parent chain. Numbers in names are those of the source. These are yes or no findings as the source states them, for the method shown. Some results given as binding are weak or reduced against the parent protein; the word gives no strength.

T1: full-length Swi6 (S. pombe) (UniProt P40381)
T1 sequence: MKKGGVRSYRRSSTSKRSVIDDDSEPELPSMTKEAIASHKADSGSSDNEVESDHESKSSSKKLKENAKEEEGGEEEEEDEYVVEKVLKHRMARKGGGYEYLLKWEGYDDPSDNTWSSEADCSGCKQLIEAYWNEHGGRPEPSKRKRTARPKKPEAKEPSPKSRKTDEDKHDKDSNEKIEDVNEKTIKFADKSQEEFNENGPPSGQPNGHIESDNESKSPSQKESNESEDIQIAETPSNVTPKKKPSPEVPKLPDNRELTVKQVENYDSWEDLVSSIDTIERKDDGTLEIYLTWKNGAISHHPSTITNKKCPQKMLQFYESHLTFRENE

T2: Swi2C (392–722 aa) (S. pombe) (UniProt Q10668)
T2 sequence: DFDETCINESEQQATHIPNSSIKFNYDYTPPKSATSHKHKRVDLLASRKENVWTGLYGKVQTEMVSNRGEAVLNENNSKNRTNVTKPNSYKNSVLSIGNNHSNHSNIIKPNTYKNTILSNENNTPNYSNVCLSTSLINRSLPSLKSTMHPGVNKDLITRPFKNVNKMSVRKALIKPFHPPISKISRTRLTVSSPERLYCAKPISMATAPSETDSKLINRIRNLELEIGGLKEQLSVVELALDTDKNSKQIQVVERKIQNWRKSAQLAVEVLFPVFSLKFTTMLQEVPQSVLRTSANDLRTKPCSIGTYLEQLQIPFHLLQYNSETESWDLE

T3: Swi2CS (607–722 aa) (S. pombe) (UniProt Q10668)
T3 sequence: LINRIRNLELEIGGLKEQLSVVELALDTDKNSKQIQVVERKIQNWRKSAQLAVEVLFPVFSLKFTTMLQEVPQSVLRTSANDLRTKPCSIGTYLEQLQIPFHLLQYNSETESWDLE

T4: Swi2 (1–722 aa), co-expressed and purified with Swi5 (S. pombe) (UniProt Q10668)
T4 sequence: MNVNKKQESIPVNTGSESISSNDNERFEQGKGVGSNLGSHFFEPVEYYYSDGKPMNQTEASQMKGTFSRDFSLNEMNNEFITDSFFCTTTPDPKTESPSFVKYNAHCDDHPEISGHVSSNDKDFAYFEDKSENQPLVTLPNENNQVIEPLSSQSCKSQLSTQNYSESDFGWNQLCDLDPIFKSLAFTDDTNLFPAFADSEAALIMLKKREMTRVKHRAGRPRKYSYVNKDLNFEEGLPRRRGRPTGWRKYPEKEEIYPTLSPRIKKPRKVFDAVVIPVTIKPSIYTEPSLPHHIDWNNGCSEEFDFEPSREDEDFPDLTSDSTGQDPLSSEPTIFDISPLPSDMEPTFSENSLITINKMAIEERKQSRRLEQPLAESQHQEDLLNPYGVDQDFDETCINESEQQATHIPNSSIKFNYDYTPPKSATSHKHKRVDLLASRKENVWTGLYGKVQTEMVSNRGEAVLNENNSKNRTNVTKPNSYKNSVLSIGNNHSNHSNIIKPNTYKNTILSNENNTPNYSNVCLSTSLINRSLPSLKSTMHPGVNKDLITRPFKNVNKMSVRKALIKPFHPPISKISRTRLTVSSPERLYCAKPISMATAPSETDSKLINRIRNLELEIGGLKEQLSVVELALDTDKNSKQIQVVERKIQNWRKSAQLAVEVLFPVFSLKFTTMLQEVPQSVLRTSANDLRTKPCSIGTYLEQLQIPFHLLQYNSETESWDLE

T5: Swi2S (205–722 aa) (S. pombe) (UniProt Q10668)
T5 sequence: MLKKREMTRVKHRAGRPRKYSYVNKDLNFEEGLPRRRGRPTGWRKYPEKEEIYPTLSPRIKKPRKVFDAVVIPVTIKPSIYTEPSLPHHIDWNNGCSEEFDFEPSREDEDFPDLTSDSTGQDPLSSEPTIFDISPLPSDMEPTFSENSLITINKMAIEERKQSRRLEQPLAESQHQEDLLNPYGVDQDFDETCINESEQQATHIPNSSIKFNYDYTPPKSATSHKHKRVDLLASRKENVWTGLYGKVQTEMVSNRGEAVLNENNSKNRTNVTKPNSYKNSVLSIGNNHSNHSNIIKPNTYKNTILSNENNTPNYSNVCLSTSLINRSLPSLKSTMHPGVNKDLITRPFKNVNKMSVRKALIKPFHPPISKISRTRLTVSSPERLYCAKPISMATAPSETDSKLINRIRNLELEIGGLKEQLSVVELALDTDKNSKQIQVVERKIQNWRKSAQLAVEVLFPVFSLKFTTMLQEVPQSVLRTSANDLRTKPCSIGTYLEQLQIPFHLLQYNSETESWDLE

B1: Swi2 full-length (pGADT7-Swi2 full-length) (protein, UniProt Q10668 1-722)
chain: T4 sequence
B2: Swi5 (protein, UniProt Q9UUB7 1-85)
chain: MEKSQLESRVHLLEQQKEQLESSLQDALAKLKNRDAKQTVQKHIDLLHTYNEIRDIALGMIGKVAEHEKCTSVELFDRFGVNGSE
B3: Swi2 (1–280) truncation mutant (domain or fragment, UniProt Q10668 1-280)
chain: MNVNKKQESIPVNTGSESISSNDNERFEQGKGVGSNLGSHFFEPVEYYYSDGKPMNQTEASQMKGTFSRDFSLNEMNNEFITDSFFCTTTPDPKTESPSFVKYNAHCDDHPEISGHVSSNDKDFAYFEDKSENQPLVTLPNENNQVIEPLSSQSCKSQLSTQNYSESDFGWNQLCDLDPIFKSLAFTDDTNLFPAFADSEAALIMLKKREMTRVKHRAGRPRKYSYVNKDLNFEEGLPRRRGRPTGWRKYPEKEEIYPTLSPRIKKPRKVFDAVVIPVTI
B4: Swi2 (1–260) truncation mutant (domain or fragment, UniProt Q10668 1-260)
chain: MNVNKKQESIPVNTGSESISSNDNERFEQGKGVGSNLGSHFFEPVEYYYSDGKPMNQTEASQMKGTFSRDFSLNEMNNEFITDSFFCTTTPDPKTESPSFVKYNAHCDDHPEISGHVSSNDKDFAYFEDKSENQPLVTLPNENNQVIEPLSSQSCKSQLSTQNYSESDFGWNQLCDLDPIFKSLAFTDDTNLFPAFADSEAALIMLKKREMTRVKHRAGRPRKYSYVNKDLNFEEGLPRRRGRPTGWRKYPEKEEIYPTL
B5: Swi2-V274A (protein, UniProt Q10668 1-722)
chain: T4 sequence with V274A

Tests used:
[1] = molecular target: T1, full-length Swi6 (S. pombe); assay: two-hybrid; yeast two-hybrid in S. cerevisiae; Swi2 derivatives in pGADT7 against Swi6; spot tests on 2DO (SD-leu -trp, control), 3DO (HIS3 reporter) and 4DO (HIS3 and ADE2 reporters) dropout plates
[2] = molecular target: T2, Swi2C (392–722 aa) (S. pombe); assay: co-purification; His-SUMO-Swi2, -Swi2S, -Swi2C or -Swi2CS co-expressed with Swi5 in E. coli; Ni-NTA capture, SUMO tag cleaved by His-Ulp1, then ion-exchange and/or heparin columns and Superdex 200 gel filtration in R buffer with 200 mM NaCl
[3] = molecular target: T3, Swi2CS (607–722 aa) (S. pombe); assay: as above
[4] = molecular target: T4, Swi2 (1–722 aa), co-expressed and purified with Swi5 (S. pombe); assay: as above
[5] = molecular target: T5, Swi2S (205–722 aa) (S. pombe); assay: as above

| Binder | binding [1] | further results |
| --- | --- | --- |
| B1 | binds |  |
| B2 |  | binding [2]: binds; binding [3]: binds; binding [4]: binds; binding [5]: binds |
| B3 | binds |  |
| B4 | no binding |  |
| B5 | no binding |  |
